Among all 150,000 compounds or so, about 540 (0.36%) showed an effect of 50% or more. The list shows a part of the results.

Experimental findings from ChEMBL document CHEMBL5308541, “MAIP: An Open-Source Tool to Enrich High-Throughput Screening Output and Identify Novel, Druglike Molecules with Antimalarial Activity” (ACS Med Chem Lett, 2023) are described below.

The subject of the experiment is Plasmodium falciparum. Nature of the experiment: Primary screen in NF54 nanoGlo assay, in single point, at 2uM, 72h; a lower Z score goes with more inhibition. The experiment is classed as functional, Erythrocyte. Conditions: timepoint 72 hour.
With `Cc1cc(CCNC(=O)N2CC[C@H](O)CC(C)(C)C2)ccc1Cl`, the % Inhibition (usually the relative decrease from the control value, in per cent) was -9% and the Z score was 1.55.
The corresponding values for `Nc1nccc(NC2COCC2N2CCOCC2)n1` (configuration not stated) are -2% and 0.5.
For `O=C(NCCN1CCCC1)c1ccc(-c2ccc(C(F)(F)F)nc2)cc1` the same measures were 5% and -0.82.
For `O=C(NC1CCN(CC(F)F)CC1)[C@@H]1CCCN1C1CCOCC1` the same measures were -2% and 0.3.
Regarding `c1cc(OC23CCCN(CC2)C3)ccc1CN1CCC(N2CCOCC2)CC1` (configuration not stated), the “% Inhibition” value was -2% and the Z score is reported as 0.23.
For `CC(C)(C)c1cn2nc(NCCNc3ccc4ccccc4n3)sc2n1`, the “% Inhibition” value was 6% and the Z score is -0.98.
Turning to `CN1CCN(c2cc(N3CCC4(O)CCNCC4C3)nc(N)n2)CC1` (configuration not stated), the “% Inhibition” value turned out to be 3% and the Z score is -0.73.
Turning to `Fc1ccc2c(CCNCc3cnn(-c4ccccc4)c3)c[nH]c2c1`, the “% Inhibition” value is given as -3% and the Z score stood at 0.71.
For `Cc1nc(NCC2(CN3CCN(C)CC3)CC2)nc2c1CCCC2`, the “% Inhibition” value is -14% and the Z score was determined as 2.49.
Consider `COc1ccc(-c2cccc(C(=O)NCC3CCNCC3)c2)c2cccnc12`, for which the “% Inhibition” value is reported as 21% and the Z score is -3.55.
For `CN1C(=O)[C@H]2CN(C[C@@H]3CCCN4CCCC[C@H]34)C[C@H]2C1=O` the same measures were -4% and 0.88.
For `CCN(CC)S(=O)(=O)CCNC1C2CCCOC2C1(C)C` (configuration not stated) the same measures were 1% and -0.2.
With `Cn1ccnc(Nc2ccc(Oc3ccc(CO)cc3)cc2)c1=O`, the “% Inhibition” value came out at 13% and the Z score is -2.24.
The corresponding values for `O=C1C[C@H](Nc2nccc(-c3ccccn3)n2)CN1Cc1ccccc1` are -9% and 1.55.
For `CCCC1CC(C(=O)NCc2nc3cccnc3[nH]2)CCO1` (configuration not stated) the same measures were 4% and -0.76.
On to `CC(C)(C)OC(=O)N1CC[C@@H]1CNc1cccc(-n2cnc3ccccc32)n1`, for which the “% Inhibition” value was -13% and the Z score stood at 2.89.
The corresponding values for `CCN1CCC[C@@H]1CNC1CCN(c2ccc(NC(=O)c3cccc(Cl)c3)cc2)CC1` are 0% and -0.02.
As for `N#Cc1cccc(Cl)c1N1CCC(N2CCCC2)CC1`, the “% Inhibition” value amounted to 26% and the Z score is on record as -5.52.
As for `CCN(CC(=O)Nc1cccc(NC(C)=O)c1)Cc1ccc2[nH]ccc2c1`, the “% Inhibition” value was -5% and the Z score is recorded as 1.07.
As to `COc1ccc2nc3c(c(NC4CCOC5(CCOC5)C4)c2c1)CCCC3` (configuration not stated), the “% Inhibition” value is on record as -10% and the Z score is reported as 1.84.
The corresponding values for `O=C(c1ccnc(N2CCC(N3CCC(O)CC3)CC2)c1)N1CCCCC1` are 6% and -1.14.
The corresponding values for `O=C(NCc1cccc(-c2nc(-c3ccncc3)no2)c1)c1ccnc(OC2CCC2)c1` are -12% and 2.18.
The corresponding values for `c1ccc(-c2ncc(CN3CC4CCC(C3)N(CC3CCC3)C4)cn2)nc1` (configuration not stated) are -8% and 1.45.
Take `O=C(O)c1cccc(Nc2ncc(F)c(Nc3ccc(O)cc3)n2)c1`: the “% Inhibition” value is on record as -5% and the Z score was determined as 0.77.
For `Cc1ccc2[nH]cc(-c3cc(N4CCCCC4)ncn3)c2c1` the same measures were 11% and -2.17.
As to `O=C(c1ccnc2ccccc12)N1CCCN(C[C@H]2COc3ccccc3O2)CC1`, the “% Inhibition” value is -4% and the Z score is reported as 0.66.
For `CC1CCCCN1CCCNC(=O)CC(c1ccc2c(c1)OCO2)c1c[nH]c2ccccc12` (configuration not stated) the same measures were 1% and -0.19.
For `CC1CCNCCC1NC1CC(=O)N(CCN2CCOCC2)C1` (configuration not stated) the same measures were 7% and -1.5.
For `OC[C@H](Cc1ccc(O)cc1)NCc1csc(-c2ccc(F)cc2)n1` the same measures were 7% and -1.55.
For `CCOc1ccc2nc(N3CCC(N4CCC([C@H](O)c5cccnc5)CC4)CC3)nc(C)c2c1`, the “% Inhibition” value is listed as 27% and the Z score is listed as -4.8.
Regarding `COC1(CNS(=O)(=O)c2c(C)cnn2C)CCCCCC1`, the “% Inhibition” value was -7% and the Z score is reported as 1.11.
The corresponding values for `CN(CC[C@H]1CCOC1)Cc1ccc2ncccc2c1` are 1% and -0.12.
The corresponding values for `NCCc1ccc(C(=O)N2CCCC3(CCCC3O)C2)cc1` (configuration not stated) are 12% and -1.99.
For `CC(C)C(=O)N1CCC[C@H]1C(=O)N1CCCN(CC2CCCCC2)CC1` the same measures were -6% and 1.26.
As for `Cc1ccc(Oc2ccc(C(=O)Nc3ccc(Nc4cc(N5CCOCC5)nc(C)n4)cc3)cc2)nn1`, the “% Inhibition” value is listed as -9% and the Z score amounted to 1.85.
As for `CCc1ccc2occ(C(=O)N(CCOCCO)C(C)C)c2c1`, the “% Inhibition” value was -3% and the Z score turned out to be 0.61.
For `CC(CN1CCN(C)CC1)NC1CCCC(C(F)(F)F)C1` (configuration not stated) the same measures were -6% and 0.98.
For `Cn1cc(CC(=O)N2CC3CN(Cc4ccns4)CC3(CO)C2)c2ccccc21` (configuration not stated) the same measures were -3% and 0.46.
In the case of `c1ccc2[nH]c(N3CCCN(c4ncnc5[nH]ccc45)CC3)nc2c1`, the “% Inhibition” value is -6% and the Z score was 1.21.
The corresponding values for `O=C(N[C@H]1CCOC2(CCCC2)C1)c1ccc(Cl)c2cccnc12` are 3% and -0.42.
The corresponding values for `COc1ccc(-c2nn3c(-c4ccccc4O)ccnc3c2C)cc1` are -6% and 1.05.
